Laboratory results: PubChem BioAssay AID1745853 (National Center for Advancing Translational Sciences (NCATS), 2022)
The other results are listed elsewhere or left out. Shown are side measurements of this screen, not its main read-out; they come without a call.

What was measured:
Assay in all cases: Primary Screen for Target Class Profiling of Small Molecule Inhibitors of Methyltransferases
[1] = target: Glycine N-methyltransferase (Homo sapiens) (UniProt Q14749); details: purified enzyme, MTase-Glo SAH luminescence; measured here: GNMT inhibition; at 40 µM; stronger effect = lower value
Summary of the method: (§1)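 Each enzyme was assayed with SAM and its substrate. SAH formation detected by MTase-Glo luminescence; single-point 40 uM screen[…].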

[2] = target: Guanidinoacetate N-methyltransferase (Homo sapiens) (UniProt Q14353); details: purified enzyme, MTase-Glo SAH luminescence; measured here: GAMT inhibition; at 40 µM; stronger effect = lower value
Summary of the method: as §1

[3] = target: Histamine N-methyltransferase (Homo sapiens) (UniProt P50135); details: purified enzyme, MTase-Glo SAH luminescence; measured here: HNMT inhibition; at 40 µM; stronger effect = lower value
Summary of the method: as §1

[4] = target: Nicotinamide N-methyltransferase (Homo sapiens) (UniProt P40261); details: purified enzyme, MTase-Glo SAH luminescence; measured here: NNMT inhibition; at 40 µM; stronger effect = lower value
Summary of the method: as §1

[5] = target: Phenylethanolamine N-methyltransferase (Homo sapiens) (UniProt P11086); details: purified enzyme, MTase-Glo SAH luminescence; measured here: PNMT inhibition; at 40 µM; stronger effect = lower value
Summary of the method: as §1
On the % scale 0 is the no-effect control and ±100 the full control effect.

| Compound | activity change, negative = inhibition [1] | activity change, negative = inhibition [2] | activity change, negative = inhibition [3] | activity change, negative = inhibition [4] | activity change, negative = inhibition [5] |
| --- | --- | --- | --- | --- | --- |
| c1cnc(N2CCOCC2)c(OC2CCNC2)n1 (stereo not given) | -6.26% | -5.07% | -6.39% | -5.25% | -3.51% |
| FC(F)(F)c1ccc(Nc2nc3ccc(Oc4ccnc(-c5ncc(C(F)(F)F)[nH]5)c4)cc3[nH]2)cc1 | -7.1% | -16% | 0.514% | -41.5% | -2.35% |
| C/C=C(\C)C(=O)OC[C@H]1O[C@@H](O[C@H]2[C@@H](O[C@H]3O[C@H](COC(=O)/C(C)=C/C)[C@@H](O)[C@H](O)[C@H]3O[C@@H]3O[C@H](COC(=O)/C(C)=C/C)[C@@H](O)[C@H](OC(=O)/C(C)=C/C)[C@H]3O)O[C@H](COC(=O)/C(C)=C/C)[C@@H](O)[C@@H]2O)[C@H](O)[C@@H](O)[C@@H]1O | 0% | 8.72% | 0.179% | -3.48% | 4.27% |
| C=CCN(C)C(=O)[C@@H](C)C1CC[C@@]2(C)Cc3sc(CSc4ccccc4)nc3[C@@H](C)[C@@H]2[C@H]1O (stereo not given in full) | -5.06% | -6.45% | -1.99% | -13.8% | -24.7% |
| CCCn1c(=O)c2ccc(C(=O)NC(C)CC)cc2n2c(=O)n(Cc3cccc(Cl)c3)nc12 (stereo not given) | -1.02% | 3.06% | 2.87% | -6.35% | -0.905% |
| CC(C)Cc1cc(C(=O)N2CCc3[nH]nc(-c4ccccc4)c3C2)nc(=O)[nH]1 | -6.2% | -1.76% | 1.42% | -1.16% | -1.92% |
| CC1CC[C@]2(C(=O)O)CC[C@]3(C(=O)O)C(=CCC4[C@@]5(C)CC[C@H](O[C@@H]6O[C@H](CO)[C@@H](O)[C@H](O)[C@H]6O)C(C)(C)C5CC[C@]43C)C2C1C (stereo not given in full) | 5.94% | 7.3% | 11.5% | -6.01% | 3.85% |
| CC1(C(=O)NCc2ccccc2)Cn2nc(-c3ccccc3)cc2C(=O)N1CCCc1ccccc1 (stereo not given) | 7.21% | 2.4% | 9.15% | 10.1% | 2.78% |
| CCC1c2ccc(C)n2CCN1C(=O)Nc1ccc(Br)cc1F (stereo not given) | 0.017% | 0.176% | 4.87% | -12.6% | -2.1% |
| Cc1ccccc1CN1CC(=O)N(Cc2ccc(Cl)cc2)c2ccccc2S1(=O)=O | 4.88% | 6.69% | 0.454% | -0.312% | -1.01% |
| CCOc1ccccc1CN1C(=O)c2cc3sccc3n2CC1(C)C(=O)NC1CCCCC1C (stereo not given) | 0.5% | 0% | 2.13% | -2.95% | -1.46% |
| C[C@@H]1N[C@H]2N(C1=O)c1ccccc1[C@@]2(O)C[C@@H]1C(=O)N[C@@H](C)c2nc3ccccc3c(=O)n21 | -4.99% | -0.094% | 5.37% | -20.2% | -7.53% |
| CCOC(=O)Nc1nc2ccccc2[nH]1 | -7.76% | -3.88% | -1.88% | -29.1% | -0.36% |
| CC(C)NC(=O)c1ccc2c(=O)nc3c(-c4ccccc4)n[nH]n3c2c1 | 2.28% | 0% | 3.22% | 4.42% | -0.592% |
| COc1ccc(CNC(=O)c2ccc3c(=O)nc4c(-c5cccc(F)c5)n[nH]n4c3c2)cc1OC | -13% | -2.46% | -4.66% | -9.72% | -4.37% |
| C=Cc1ccc(Cn2nc3n(CCC(C)C)c(=O)c4ccc(C(=O)NC5CCCC5)cc4n3c2=O)cc1 | 4.57% | 1.12% | 6.26% | -6.42% | 4.34% |
| CC(=O)N1CCN(Cc2snnc2C(C)C)CC(O)C1 (stereo not given) | -0.744% | 0.755% | 2.52% | -0.594% | -3.62% |
| COc1ccc(C(=O)N[C@H](C)c2c(-c3ccc(F)cc3)noc2C(=O)O)cc1 | -10.2% | -3.23% | -1.81% | -13.1% | -0.736% |
| Nc1nc2c(cnn2CCc2ccccc2)c2nc(-c3ccco3)nn12 | -63.9% | 2.57% | -6.19% | -9.14% | 2.77% |

| Compound | activity change, negative = inhibition [1] | activity change, negative = inhibition [2] | activity change, negative = inhibition [3] | activity change, negative = inhibition [4] | activity change, negative = inhibition [5] |
| --- | --- | --- | --- | --- | --- |
| CNC(=O)c1c(F)cccc1Nc1nc(Nc2cc3c(cc2OC)CCN3C(=O)CN(C)C)nc2[nH]ccc12 | -6.16% | 9.4% | -8.5% | -1.66% | -0.491% |
| COc1ccc2c(c1)c(CC(=O)O)c(C)n2C(=O)c1ccccc1 | -0.896% | 13.8% | 6.33% | -11.7% | 7.65% |
| Cc1cccc(NC(=O)Cn2nc3n(C(C)C)c(=O)c4ccc(C(=O)NC5CCCCC5)cc4n3c2=O)c1 | 1.67% | 1.87% | 3.99% | 1.81% | 2.72% |
| CCC(C)NC(=O)c1ccc2c(=O)n(C)c3nn(Cc4ccccc4Cl)c(=O)n3c2c1 (stereo not given) | -3.7% | 0% | 0.523% | -4.48% | 0.235% |
| COc1ccccc1CNC(=O)CCn1ccc2cc(S(=O)(=O)N3CCC(C)CC3)ccc21 | 4.42% | -1.05% | -1.92% | -3.74% | -3.77% |
| CCN(CC)CCCNC(=O)CCCc1nnc2n3nc(-c4ccccc4)nc3c3ccccc3n12 | -10.6% | 0% | -61.6% | 9.37% | -4.35% |
| COCCOc1cc(C)c2c(c1C)C[C@H](C(C)C(=O)NCc1cccs1)CC2 (stereo not given in full) | -5.72% | -4.07% | -11.2% | -13.8% | -6.32% |
| O=C(N[C@@H]1CCOC[C@H]1OCc1cscn1)c1ccccc1-n1cccn1 | -0.047% | -1.73% | -1.58% | -2.11% | -1.75% |
| O=C(/C=C/c1cccc(S(=O)(=O)Nc2ccccc2)c1)NO | 1.52% | 2.35% | 6.93% | -8.12% | 6.09% |
| O=C(c1n[nH]c2c1CCCC2)N1CCCC2(C1)Nc1cccnc1NC2=NC1CCCC1 (stereo not given) | -6.79% | -2.6% | -14.1% | -24.9% | 9.18% |
| Cc1cc(O)cc(O[C@@H]2O[C@H](CO)[C@@H](O)[C@H](O)[C@H]2O)c1 | 2.42% | 1.42% | 3.45% | -9.57% | 4.7% |
| Cc1ccc2n1CCN(C(=O)NCc1ccccc1)C2C(C)C (stereo not given) | -2.94% | 0.927% | -13.2% | -15.3% | -8.31% |
| Cn1c2c(c3ccccc31)C(C(=O)NCc1ccccc1)N(c1cccc(Cl)c1)C(=O)CS2 (stereo not given) | -2.47% | 0.741% | -5.89% | -15.7% | -9.04% |
| COc1ccc2cc3n(c2c1)CC(C)(C(=O)NC1CCCC1)N(c1cccc(F)c1)C3=O (stereo not given) | 2.4% | -0.355% | 1.95% | 3.63% | -3.63% |
| CCCN1C(=O)c2c(C(=O)NCc3cc(OC)ccc3OC)ncn2CC1(C)C(=O)NCc1ccc(C)cc1 (stereo not given) | -1.84% | 0% | -1.59% | -1.48% | 1.4% |
| COc1ccc(NC(=O)CCc2nnc3n(CCCOC(C)C)c(=O)c4ccccc4n23)cc1OC | -3.79% | 3.04% | -4.1% | 12.5% | -7.38% |
| Cc1ccc(C(=O)N2CCC(C(=O)N3CCC(N4CCCC4=O)CC3)CC2)cc1 | 0.001% | 2.21% | 0.722% | 1.98% | 5.61% |
| CNC(=O)c1cc(C)nc2onc(C3CCCN3C(=O)C(C)(C)C)c12 (stereo not given) | -3.53% | 0.585% | 2.06% | -2.98% | -9.45% |
| Cn1nc(CN2CCOCC2)c2c1CCN(S(=O)(=O)c1cccnc1)C2 | -3.06% | 0.979% | -0.141% | -0.123% | 11% |

| Compound | activity change, negative = inhibition [1] | activity change, negative = inhibition [2] | activity change, negative = inhibition [3] | activity change, negative = inhibition [4] | activity change, negative = inhibition [5] |
| --- | --- | --- | --- | --- | --- |
| CCc1ccc(S(=O)(=O)N2[C@@H]3CC[C@H]2CC(NC(=O)c2ccc(F)cc2)C3)cc1 (stereo not given in full) | -7.97% | -7.62% | -7.98% | -16% | -12.5% |
| COc1ccc(CN2CCNC(=O)C2CC(=O)NCc2ccncc2)cc1OC (stereo not given) | -7.52% | -4.26% | -3.14% | -26.8% | -4.15% |
| CCOc1ccc(CNC(=O)c2cc3n(n2)CC(C)(C(=O)NCCC(C)C)N(C)C3=O)cc1OC (stereo not given) | 4.83% | 4.98% | 5.51% | 1.07% | -0.646% |
| Cc1ccc(N2C(=O)c3cc(C(C)(C)C)nn3CC2(C)C(=O)NC2CCCCC2)c(C)c1 (stereo not given) | -4.62% | 2.31% | 0.963% | 2.92% | -3.33% |
| CC1(C(=O)NC2CCCCCCC2)Cn2c(cc3occc32)C(=O)N1Cc1ccc(F)cc1 (stereo not given) | -2.24% | 4.8% | -2.26% | -13.1% | -2.84% |
| C=C1C(=O)OC2/C=C(\C)CC3C=C(CC/C=C(\C)CCC12)C(=O)O3 (stereo not given) | -5.89% | -2.42% | 0.852% | -13.3% | 2.23% |
| CC(C)CCn1c(=O)c2ccc(C(=O)NC(C)C)cc2n2c(=O)n(Cc3cccc(Cl)c3)nc12 | 3.33% | 0.056% | -5.7% | 11.3% | 1.34% |
| COc1ccc(OC)c2c1cc1n2CC(C)(C(=O)NC2CCCCCC2)N(Cc2cccs2)C1=O (stereo not given) | 2.23% | 0.329% | 2.75% | -4.69% | -0.434% |
| O=C(NCc1ccco1)C1CC(c2ccccc2)CN(C(=O)Nc2ccc(Cl)cc2)C1 (stereo not given) | -8.67% | -9.8% | -4.47% | -9.24% | -4.44% |
| Cc1ccc(Cn2c(=O)c3ccccc3n3c(SCC(=O)Nc4ccc(F)cc4F)nnc23)cc1 | -2.93% | 3.84% | 4.09% | -6.84% | -1.1% |
| CN1CCC2(CCC1=O)CN(C(=O)c1ccc(Cn3cccn3)o1)CCN2C (stereo not given) | -7.08% | -12% | -4.88% | -20.1% | -15.5% |
| CN1C(=O)c2cc(C(=O)NCc3ccco3)nn2CC1(C)C(=O)NC1CCCCC1 (stereo not given) | 1.06% | 4.49% | 3.59% | 6.46% | 2.25% |
| O=C(CCc1nnc2n(Cc3ccccc3)c(=O)c3ccccc3n12)NCc1ccccc1Cl | -8.97% | 3.03% | 1.58% | 0.865% | -3.06% |
| CCOC(=O)C1=CN(CC(=O)Nc2ccccc2C(F)(F)F)S(=O)(=O)N=C1C | -1.9% | 0.045% | 0.741% | 2.21% | 1.53% |
| COCCNC(=O)CCc1nnc2n(CCc3ccccc3)c(=O)c3ccccc3n12 | -9.4% | 0.128% | 11% | 15.3% | 4.4% |
| C=C(C)C1CC2(CO)C(=CC1=O)CCC(O)C2C (stereo not given) | 0% | 1.55% | 8.37% | -8.46% | 2.77% |
| CC1(c2noc(-c3cccnc3)n2)CCN(C(=O)CCC(=O)n2ncc3c(Cl)cccc32)CC1 | -0.211% | -0.88% | 1.76% | 0.593% | -3.12% |
| COc1cccc(N2C(=O)c3cc(C(C)(C)C)nn3CC2(C)C(=O)NC2CCCCCC2)c1 (stereo not given) | 4.42% | 1.8% | 9.1% | 3.53% | 3.56% |
| Cc1noc(-c2ccco2)c1C(=O)NC(C)c1ccccc1 (stereo not given) | -0.271% | 2.21% | 0.862% | -7.98% | 8.06% |
